Source: patent US20220304979A1, “METHODS OF REDUCING DISEASE FLARES” (Chinook Therapeutics, Inc., priority 2019, published 2022)

Test system: ET-1 stimulated HRMC
Assay: hallmark gene set enrichment in ET-1 stimulated HRMC treated with atrasentan
Settings: atrasentan 1 nM and 25 nM

Compound: CCCCN(CCCC)C(=O)CN1C[C@H](c2ccc3c(c2)OCO3)[C@@H](C(=O)O)[C@@H]1c1ccc(OC)cc1 [atrasentan, (2R,3R,4S)-4-(1,3-benzodioxol-5-yl)-1-[2-(dibutylamino)-2-oxoethyl]-2-(4-methoxyphenyl)pyrrolidine-3-carboxylic acid]
- enrichment of hallmark gene sets (TNFα signaling via NF-κB, mitotic spindle, inflammatory response, EMT, IL6-JAK-STAT3 etc.): negative enrichment scores
